# Data reported in paper PMC4242493.
# The list shows a part of the results. The list includes weakly bound sequences.
# Target: MaxL homodimer (UniProt P61244)
# Assay: universal protein-binding microarray (PBM)
# Settings: PBS-based mixture, 10 nM His-tagged protein dimer, 2% milk, 200 ng/uL BSA, 50 ng/uL salmon testes DNA, 0.02% TX-100; detection with Alexa 488 anti-His …; high values mean tight binding; most listed sequences are background and not binding sites; double strand, one strand shown
# UniProt P61244, sequence (P61244 whole entry): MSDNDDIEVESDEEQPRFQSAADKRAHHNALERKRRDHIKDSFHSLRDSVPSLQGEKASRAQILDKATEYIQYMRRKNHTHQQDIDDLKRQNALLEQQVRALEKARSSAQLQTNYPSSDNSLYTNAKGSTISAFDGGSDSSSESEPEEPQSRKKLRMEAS
row,Sequence,binding signal (normalized occupancy)
1,GTTATGAA,0.0832
2,GACGTATC,0.0746
3,ATCTAGCC,0.0726
4,ACCGTGTA,0.0779
5,ACAGGCAG,0.0762
6,CCGGGCAG,0.0656
7,ACTTGGCT,0.0687
8,TAATTGGA,0.0728
9,AGAACCGA,0.0681
10,ACCGGCAG,0.0717
11,GAGGGTAC,0.0722
12,TCTATAGA,0.0822
13,GGGTTCGA,0.0736
14,AGCGCGGC,0.074
15,ACGCAGGC,0.0747
16,ACCAGACG,0.0711
17,AACGTTGT,0.0817
18,AAGTCCAC,0.0776
19,AAGAGCAG,0.0746
20,CTGAATGA,0.0725
21,CGTCACCC,0.0766
22,ATACAGAC,0.0801
23,CGCTTACC,0.0746
24,ATGGCTAA,0.0788
25,CCCCCAAC,0.0751

row,Sequence,binding signal (normalized occupancy)
1,AGAGAATG,0.077
2,ATCAGATG,0.0804
3,AACTTCAA,0.0748
4,CCGCTTTC,0.066
5,GGTCATAC,0.0809
6,AGCCACCC,0.0778
7,CATAGATC,0.0778
8,ATAACTCA,0.0756
9,CGCCCTAA,0.0752
10,ACCTCCAC,0.075
11,AAGGTTAA,0.0737
12,CGACGTCG,0.0689
13,GCGCCTCC,0.0716
14,GGTGACAA,0.0758
15,GCGAGCAA,0.0723
16,CATAGTCC,0.0786
17,CCCTATCA,0.0783
18,CTCCCCAG,0.0736
19,ACCTCCGG,0.0726
20,GACGCCGA,0.0719
21,GGGTTTAC,0.0759
22,CTGCGTTA,0.0701
23,ATTCCCTC,0.0778
24,AGGATTGG,0.0762
25,GTAAACCA,0.0801

row,Sequence,binding signal (normalized occupancy)
1,CAGTGATC,0.075
2,AGCGAAGG,0.0678
3,CTAGGTAA,0.0728
4,ACTTACCG,0.0743
5,GTTGCCGA,0.0693
6,AAACCTGA,0.0719
7,CCCTCTAA,0.0754
8,CATTAACA,0.0801
9,CACCGCTG,0.0713
10,CCAACGGC,0.067
11,CACCCCCG,0.0852
12,GCGCAATA,0.0744
13,CCTACTAA,0.0707
14,AACCCTGG,0.0704
15,CACCAAGA,0.0735
16,AGCTCCAC,0.0753
17,GCTTAAAC,0.0661
18,AAACTCCG,0.0699
19,ATACACTC,0.0788
20,GGCCCACA,0.0789
21,ACCACTTA,0.0717
22,ATATGGGG,0.0907
23,AATGCTTA,0.0806
24,CGCTCTAG,0.0702
25,CACTACGC,0.0743

row,Sequence,binding signal (normalized occupancy)
1,AGACGCGC,0.0741
2,GATGTCGA,0.0818
3,CAGCCAAG,0.0684
4,CGTCCTTC,0.0725
5,CTTTATTC,0.0734
6,ATACCTGC,0.0811
7,GGCACCCC,0.0741
8,GGTCACCA,0.0728
9,TGTCTCAA,0.0828
10,CAACCGGC,0.0692
11,ACCAGTAA,0.0782
12,CCTGGGTA,0.0757
13,AGCTTCTC,0.0764
14,CCGTCAGA,0.0769
15,ACGCAGCA,0.0743
16,AAACGAGT,0.0728
17,ACCATTCG,0.0798
18,TAGCAATA,0.0725
19,CCCCCTCG,0.0775
20,CCGGGGTA,0.0759
21,AATAAGGC,0.0746
22,ACTCCTTG,0.0742
23,CAAGAAAC,0.0724
24,ACAGATGG,0.0869
25,ACCGGAGG,0.0682

row,Sequence,binding signal (normalized occupancy)
1,GCGGAGAA,0.0686
2,CTGAATAC,0.0791
3,CGCTACGC,0.0681
4,AGCTTATA,0.0791
5,AGCAAAAG,0.0707
6,CCGCGCCG,0.0707
7,AACCCAGT,0.0735
8,AATGTTGA,0.0797
9,GACAGGTA,0.0758
10,AATGGCTG,0.0758
11,GTTTGTCA,0.0796
12,CGCAGGAA,0.0695
13,GGGCCCAA,0.0639
14,GAAAGTGA,0.0763
15,CCTAGCCG,0.069
16,AAACGCGA,0.0771
17,CGTGCGTC,0.0896
18,TGGCTACA,0.0814
19,CGTGATTA,0.0871
20,CGAGGGCG,0.0774
21,AGCCAGTG,0.0698
22,ACTAATCT,0.075
23,AGCGTATG,0.0754
24,GGCAAGCA,0.0733
25,AGACTCGA,0.0716

row,Sequence,binding signal (normalized occupancy)
1,ATGCTAAC,0.0804
2,ACGTAAGA,0.0838
3,ACGCTGCT,0.0814
4,AAGGCTGT,0.0758
5,ACCAACGA,0.081
6,ACACGAAA,0.0765
7,CGGGATGA,0.0731
8,CGAGACCC,0.0802
9,CGGCAGAC,0.0689
10,GGCTAGCA,0.0747
11,AGAAGGGA,0.0732
12,ATCACGTG,0.363
13,CGGGTGCC,0.0651
14,GGCCCTAA,0.0688
15,ATTGCGGG,0.0765
16,AACAAGGA,0.0762
17,ATCGCGTC,0.0719
18,ATCTCGGG,0.0719
19,AAGCTTGC,0.0676
20,ACAGCTTG,0.0733
21,GGTTCTAA,0.0726
22,CCAGCAAG,0.0681
23,CTGTCAAG,0.0727
24,AGCATTCC,0.0752
25,AAGAGACG,0.0716

row,Sequence,binding signal (normalized occupancy)
1,ATTAAAGG,0.0805
2,ATCGCCGA,0.0696
3,AGGGTTCG,0.0723
4,AAGGGCGC,0.0669
5,ACGAGGTG,0.0853
6,CTTCAGAC,0.0728
7,TAGGTCAA,0.0785
8,TCCTGCGA,0.0696
9,GGATTAAA,0.075
10,ACTACGTC,0.0721
11,AACAAGCT,0.0721
12,ATGTCCAC,0.087
13,TAAGAACA,0.0773
14,CCACAAGG,0.0834
15,CACGAAGC,0.075
16,AGTAGATG,0.0731
17,AATATACT,0.079
18,CTTGGGTA,0.0749
19,GTCCACTA,0.0773
20,CGTTATGC,0.0788
21,CTTTTTGC,0.0701
22,CCGGTAGA,0.0669
23,CGGGTGAG,0.076
24,CATGGCCC,0.0896
25,AAGTGGAG,0.077

row,Sequence,binding signal (normalized occupancy)
1,CATTTCAG,0.0727
2,ACGTCAGT,0.0695
3,AGAAGCGC,0.0644
4,AGGTTTAC,0.0729
5,ACGAGGGC,0.0833
6,AGGAAGGG,0.069
7,AAAGTCGA,0.0698
8,TCGCTGAA,0.0725
9,CATCACAG,0.0787
10,AATCTTCG,0.0707
11,AGTGGGGA,0.0783
12,GGAACGTA,0.0739
13,AGGGGACC,0.0718
14,CGTAGAGA,0.0713
15,GCGCCCTA,0.0679
16,AGCAGACT,0.0708
17,CAACGCTA,0.0734
18,GTACGAAA,0.0715
19,CGGCATCA,0.0791
20,CCCTCTCC,0.072
21,GCTGTCCC,0.0732
22,CCCTGACG,0.0718
23,ACAATTCC,0.0741
24,GAACCGCA,0.0725
25,AATTTTTC,0.0718

row,Sequence,binding signal (normalized occupancy)
1,GGAGCCGA,0.0662
2,AATGGTAG,0.0804
3,ACACGTGA,0.383
4,CCTATAGC,0.0748
5,AATGATCG,0.0781
6,AACCCCCC,0.0825
7,CCTCGCTA,0.0749
8,GCGAGGAC,0.0744
9,CAAACGGG,0.0714
10,AATATATC,0.0875
11,TAAGCTTA,0.0722
12,AGGACGAG,0.0685
13,CCGAATTA,0.0738
14,GGTTTGGA,0.0748
15,CCATAGGG,0.0736
16,CATTAAGA,0.0765
17,TTAATGAA,0.0772
18,CCCAGCGA,0.0693
19,ATTCGGTA,0.0747
20,CACCACCA,0.0797
21,GCGATGCA,0.0712
22,GACTTCTC,0.075
23,ATATTGGC,0.0813
24,ACCATCTC,0.0758
25,GAAGATCC,0.0732

row,Sequence,binding signal (normalized occupancy)
1,GAGATCGA,0.0735
2,GAACCTTA,0.0694
3,GCACGTAA,0.0846
4,AACTAAAC,0.0739
5,ATCTAGAG,0.0731
6,ATAGGTTA,0.0866
7,ACTCATAG,0.0819
8,CCCGGGTC,0.07
9,CGTGCTTC,0.0896
10,GGGGCCCA,0.0703
11,CAAGCTGC,0.0701
12,TTCAGCAA,0.0788
13,AAAGGGAA,0.0742
14,CACGTTAA,0.0921
15,AGCGCATA,0.0757
16,ACTTCAAT,0.0781
17,AAGGCGCC,0.0704
18,CCGTAGAA,0.07
19,CCGCCCAC,0.0735
20,CCGCCGGC,0.0624
21,AGAGCTTC,0.0656
22,CGTGATAA,0.0906
23,ATAAGTGG,0.0731
24,ACGTGCAT,0.104
25,ATCTTTTC,0.0767

row,Sequence,binding signal (normalized occupancy)
1,CAGAGGTA,0.0667
2,AACTCATG,0.0927
3,GGGGATGA,0.0802
4,TCGAACCA,0.0767
5,ATGCCAAG,0.0786
6,ATAGTTGA,0.0762
7,AGTTGGAA,0.069
8,ATGGACCC,0.0803
9,CCACCAGG,0.0739
10,AAGAGTCA,0.0776
11,CTGGGTAA,0.0719
12,ATACACGA,0.0889
13,GCAGGACA,0.0704
14,GTAGAGCA,0.0741
15,ATAGGCAA,0.0784
16,GCCCCGGA,0.0676
17,AGCTGGGG,0.0674
18,TAGCCGAA,0.0697
19,AAACCATT,0.0769
20,ATGGTCTG,0.0769
21,GCAGGCGA,0.075
22,AGGGTTTC,0.0725
23,CACGTCAC,0.0901
24,GAGAAGGA,0.0733
25,CGGTCTTC,0.0716

row,Sequence,binding signal (normalized occupancy)
1,GTACTCAA,0.0762
2,TGAACTCA,0.0755
3,ACAAGGAT,0.0764
4,GGTGTCAA,0.0753
5,GTGATCTA,0.0775
6,ATCCGCTA,0.069
7,ATAAACTA,0.0706
8,ATATCTCC,0.0807
9,ACACGTCG,0.0849
10,CTCATTCA,0.0751
11,ATGGCGGG,0.0805
12,AGATGTAA,0.0794
13,CCAACCTC,0.0754
14,GATGAGAA,0.0748
15,CAGCTTGA,0.0716
16,GCTGCTTA,0.0692
17,CGTCAAAC,0.0741
18,TCACCGAA,0.0704
19,AGGGTGAC,0.0768
20,CTACGTAG,0.0706
21,ACGTGGAA,0.108
22,AAATGAGG,0.0874
23,ACGTTGGA,0.0794
24,CGTCGACG,0.07
25,ACGCTCCA,0.0735

row,Sequence,binding signal (normalized occupancy)
1,TAAGAGCA,0.0777
2,CCGCACTA,0.0724
3,ACCTTTGC,0.0696
4,CTCCTCAG,0.0738
5,AGAATGTA,0.0758
6,AGTCCGCG,0.0732
7,GGATATGA,0.0848
8,GGTGGCAA,0.0755
9,CAAACGCA,0.0734
10,AAACGGGT,0.0744
11,AGTGATAA,0.0774
12,AATGGCGG,0.0712
13,CAAGACGC,0.0714
14,ACAGATAA,0.0778
15,GAGCCCAA,0.0733
16,GCTTGCGA,0.0665
17,GCGGCAGC,0.0701
18,AATGGCGT,0.0784
19,ATTGCAAA,0.0748
20,AGGTCTCC,0.0696
21,AGGGTCGC,0.0684
22,ACCAGGTA,0.0723
23,GTGATAGA,0.0855
24,AGTTAGTC,0.07
25,CAGAACTC,0.0683

row,Sequence,binding signal (normalized occupancy)
1,CATATTAG,0.0796
2,ACACTGGG,0.0763
3,GCCAAATA,0.0765
4,GGCGCAAC,0.0668
5,AAAAACCT,0.072
6,AGTGCAGC,0.071
7,AGGCTAAT,0.0714
8,GTTCACTA,0.0695
9,ATACTATC,0.0803
10,AGGAACAA,0.0686
11,GATCACCA,0.0749
12,ATTTCTAC,0.0772
13,CGTAGTAG,0.0708
14,AACGTTGC,0.0766
15,CGAGAACA,0.0747
16,GGCAAGAC,0.0729
17,GCGCGAGA,0.0753
18,CGCTTGTA,0.0739
19,CTCTGATA,0.073
